Consider three molecules from patent US20250289848A1, “PEPTIDOMIMETIC INHIBITORS OF B-CATENIN/TCF PROTEIN-PROTEIN INTERACTION” (H. LEE MOFFITT CANCER CENTER AND RESEARCH INSTITUTE, INC., priority 2018, published 2025).

Molecules are shown by their SMILES.

What is called Ki is a dissociation constant, usually derived from enzyme kinetics or from competition with a known ligand.

The assay has as its target β-catenin/Tcf4 interaction (Homo sapiens (Human), UniProt P35222). Particulars: read-out: Ki ± SD; β-catenin/Tcf FP competitive inhibition; mean ± SD, n = 3.

In the case of `COC(=O)[C@H](CCC(=O)O)NC(=O)[C@H](CC(=O)O)NC(=O)[C@H](Cc1ccc2ccccc2c1)NC(=O)c1cc2ccc(Cl)cc2[nH]1` [Compound 11, (S)-4-((S)-3-Carboxy-2-((S)-2-(6-chloro-1H-indole-2-carboxamido)-3-(naphthalen-2-yl)propanamido)propanamido)-5-methoxy-5-oxopentanoic acid], the inhibition constant Ki turned out to be 89 ± 8.6 µM.

For `COC(=O)[C@H](CCC(=O)O)NC(=O)[C@H](CC(=O)O)NC(=O)[C@H](Cc1ccc2ccccc2c1)NC(=O)c1cc2cc(C)ccc2[nH]1` [Compound 14, (S)-4-((S)-3-Carboxy-2-((S)-2-(5-methyl-1H-indole-2-carboxamido)-3-(naphthalen-2-yl)propanamido)propanamido)-5-methoxy-5-oxopentanoic acid], the inhibition constant Ki is more than 100 µM.

For `COC(=O)[C@H](CCC(=O)O)NC(=O)[C@H](CC(=O)O)NC(=O)[C@H](Cc1ccc2ccccc2c1)NC(=O)c1cc2cc(OC)ccc2[nH]1` [Compound 15, (S)-4-((S)-3-Carboxy-2-((S)-2-(5-methoxy-1H-indole-2-carboxamido)-3-(naphthalen-2-yl)propanamido)propanamido)-5-methoxy-5-oxopentanoic acid], the Ki was more than 100 µM.
